Measurements: PubChem BioAssay AID2546 (National Center for Advancing Translational Sciences (NCATS), 2010)
Out of some 310,000 compounds screened, about 11,000 (3.5%) were called active. Inconclusive results, whose numbers are uncertain, are shown with a selection of clear calls. Calls come from the whole dose curve; as a rule, active = well fitted inhibition curve with a large enough effect; inconclusive = small, poorly fitted or top-dose-only effect, or effect the other way; inactive = flat fitted curve, though single readings scatter. No potency is given beside an inconclusive call; the fits are too rough.

assay: VP16 counterscreen qHTS for inhibitors of ROR gamma transcriptional activity; details: Drosophila S2 Gal4-VP16 UAS-luciferase, luminescence, 20 h; activity, negative = inhibition: at 53.6 µM (top of the series);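 note: Gal4-VP16 expression switched on by copper sulfate through the metallothionein promoter; nearly all actives have a fitted effect of over 50% in size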
% is set by controls: 0 for no effect and ±100 for the full control effect; potency is the fitted concentration of half-maximal effect; tags give direction and shape of the fitted curve.

Which Potency does the source give for `C=CCN1CCN(C(=O)CCCc2ccccc2)CC1` here?
Its Potency is active: 7.94 µM.

Which Potency does the source give for `Cc1ccc(-c2noc(C3CCCN(C(=O)c4ccccc4Br)C3)n2)o1` (stereo not given) here?
The Potency was inconclusive [activator, partial curve, poor fit].

For `NC(=O)c1ccccc1NC(=O)Nc1cccc2ccccc12`, which Potency is on record?
Its Potency is inconclusive [activator, single point].

For `O=C1c2ccccc2NC(c2ccccc2)N1Cc1ccco1` (stereo not given), which “activity, negative = inhibition” value is on record?
Its value is inactive: 0.54%.

For `O=C(Nc1nc(-c2ccccn2)cs1)C1CCCC1`, which Potency is on record?
The Potency was inconclusive [inhibitor, single point].

For `Cc1nnc(NC(=O)c2ccc3ccccc3n2)s1`, which Potency is on record?
The Potency was active: 7.08 µM.

With `COc1cc(OC)cc(N(C(=O)C2COc3ccccc3O2)C(C(=O)NC2CCCCC2)c2ccc(O)cc2)c1` (stereo not given) as the molecule, how does the Potency read?
Its Potency is inconclusive [inhibitor, single point].

For `Cc1nc2ccccc2n1CCCOc1ccccc1`, which Potency is on record?
Its Potency is inconclusive [inhibitor, single point].

Which Potency does the source give for `Cc1ccc(CSc2nc3sc(C)c(C)c3c(=O)n2Cc2ccco2)cc1` here?
Its Potency is inconclusive [inhibitor, single point].

With `O=C(O)CCc1ccc(-c2cccs2)n1CCc1ccccc1` as the molecule, how does the Potency read?
The Potency was inconclusive [inhibitor, single point].

For `O=C(CN1CCN(Cc2ccccc2Cl)CC1)N/N=C/C=C\c1ccccc1[N+](=O)[O-]`, which Potency is on record?
Its Potency is active: 0.158 µM.

With `CCC(CC)c1nnc(NC(=O)c2ccc(N3CCCCC3)c([N+](=O)[O-])c2)s1` as the molecule, how does the Potency read?
Its Potency is inconclusive [inhibitor, single point].

For `O=C(NCCCn1ccnc1)c1nn2c(C(F)(F)F)cc(-c3ccc(Br)cc3)nc2c1Cl`, which Potency is on record?
The Potency was inconclusive [inhibitor, single point].

Which Potency does the source give for `COc1ccc(NC(=S)Nc2ccc3nsnc3c2)cc1` here?
Its Potency is active: 5.62 µM.

Which Potency does the source give for `COc1ccccc1NC(=S)NCc1ccc2c(c1)cc(C)n2C` here?
The Potency was inconclusive [inhibitor, single point].

Which Potency does the source give for `CCCCOc1ccc(C(=O)Nc2cc(C)c(OCC(=O)N3CCOCC3)c(C)c2)cc1` here?
Its Potency is inconclusive [activator, single point].

For `COc1ccc(N2C(=O)CC(N3CCC(O)(c4cccc(C(F)(F)F)c4)CC3)C2=O)cc1` (stereo not given), which Potency is on record?
Its Potency is inconclusive [inhibitor, single point].

For `Cc1c2c(nc3ccccc13)CCC(C(C)(C)C)C2` (stereo not given), which Potency is on record?
The Potency was inconclusive [inhibitor, partial curve].

For `S=c1[nH]nc(Cc2c[nH]c3ccccc23)o1`, which “activity, negative = inhibition” value is on record?
Its value is inactive: -12.8%.

With `C[N+]1(C2CCC3CCCC2C3O)CCCCC1` (stereo not given) as the molecule, how does the “activity, negative = inhibition” value read?
The value was inactive: 3.02%.

With `Cc1cccc(C(=O)O/N=C(\N)c2cccc([N+](=O)[O-])c2)c1` as the molecule, how does the Potency read?
Its Potency is inconclusive [inhibitor, single point].

For `O=C(c1ccco1)N1CCN(C(=O)N2c3ccccc3Sc3ccccc32)CC1`, which Potency is on record?
Its Potency is inconclusive [inhibitor, full curve].

With `C=C1C(=O)C=C2CN(C(=O)c3ccccc3)[C@@](Cc3ccc(OC)cc3)(C(=O)OC)[C@@H]12` as the molecule, how does the Potency read?
The Potency was active: 0.708 µM.

For `CCOC(=O)N/C(N)=N/c1nc2ccccc2s1`, which Potency is on record?
Its Potency is active: 28.2 µM.

For `Oc1oc(-c2ccccc2)nc1/C=N/c1nccs1`, which Potency is on record?
The Potency was inconclusive [inhibitor, single point].

For `CCCc1ccc(OCC(O)CN2CCN(c3ccccc3)CC2)cc1` (stereo not given), which Potency is on record?
The Potency was inconclusive [inhibitor, single point].

With `Cc1ccc(-n2c(O)c(/C=N/Nc3ccc(S(=O)(=O)N4CCOCC4)cc3[N+](=O)[O-])c3ccccc3c2=O)c(C)c1` as the molecule, how does the Potency read?
The Potency was inconclusive [inhibitor, single point].

For `Cn1c(-c2sccc2OCc2cccc(C(F)(F)F)c2)n[nH]c1=S`, which Potency is on record?
The Potency was inconclusive [inhibitor, partial curve].

With `Cc1cc(C(=O)N/N=C/C=C/c2ccccc2[N+](=O)[O-])c(C)o1` as the molecule, how does the Potency read?
Its Potency is inconclusive [inhibitor, single point].

For `Fc1ccc(NC(=S)N2CCCN(c3ccc(C(F)(F)F)cn3)CC2)c(F)c1`, which Potency is on record?
The Potency was inconclusive [inhibitor, single point].

With `COc1ccc(-c2cc(=O)n(-c3ccc([N+](=O)[O-])cc3)[nH]2)cc1` as the molecule, how does the “activity, negative = inhibition” value read?
The value was inactive: -4.91%.

Which Potency does the source give for `CN(C)c1ccc(/C=N/OC(=O)Nc2ccccc2)cc1` here?
Its Potency is inconclusive [inhibitor, single point].

Which “activity, negative = inhibition” value does the source give for `CCOc1ccccc1N(C)C(=O)CCS(=O)(=O)c1ccc2c(c1)NC(=O)C(C)S2` (stereo not given) here?
Its value is inactive: -7.24%.

Which Potency does the source give for `Cc1nc2ccccc2n1C1CCN(CC(=O)Nc2ccccc2Br)CC1` here?
Its Potency is inconclusive [inhibitor, single point].

For `Cc1ccc(S(=O)(=O)c2ccc(NC(=O)c3c(F)cccc3F)cc2)cc1`, which “activity, negative = inhibition” value is on record?
The value was inactive: 2.92%.

For `O=C1/C(=C/c2cccs2)N=C(c2cccs2)N1Nc1ccccc1`, which “activity, negative = inhibition” value is on record?
The value was inactive: -8.88%.

With `COc1c(C)cccc1C(=O)Nc1ccc(CN2CCOCC2)cc1` as the molecule, how does the Potency read?
The Potency was inconclusive [inhibitor, single point].

For `O=C(Nc1ccc(F)cc1F)c1ccc2c(c1)OCCO2`, which Potency is on record?
Its Potency is inconclusive [inhibitor, single point].

For `Cc1ccc(CN2CCN(Cc3nc4c(s3)CCCC4)CC2CCO)cc1` (stereo not given), which Potency is on record?
The Potency was inconclusive [inhibitor, single point].

For `Cc1c(C(=O)OC/C(O)=C(\C#N)c2nc3ccccc3[nH]2)oc2ccc(Br)cc12`, which “activity, negative = inhibition” value is on record?
Its value is inactive: -4.09%.

With `O=C1CCCN1c1ccc(S(=O)(=O)NCc2ccc(F)cc2)cc1` as the molecule, how does the Potency read?
The Potency was inconclusive [inhibitor, single point].

For `S=C(Nc1ccccc1)Nc1cc(Cl)ccc1Oc1ccccc1`, which Potency is on record?
The Potency was inconclusive [inhibitor, single point].

Which Potency does the source give for `S=C(NCc1ccccc1)NCC1COc2ccccc2O1` (stereo not given) here?
Its Potency is inconclusive [inhibitor, single point].

With `O=Cc1ccccc1OCCOc1ccccc1C=O` as the molecule, how does the Potency read?
The Potency was inconclusive [inhibitor, single point].

Which Potency does the source give for `Cc1ccc(-c2nc3ccccc3c(=O)n2O)cc1` here?
Its Potency is active: 14.1 µM.
